# From PubChem BioAssay AID1347417 (National Center for Advancing Translational Sciences (NCATS), 2020)
# Among all 120,000 compounds or so, about 5,300 (4.4%) were called active. Inconclusive means that the source gave no clear call. Such entries were picked first, then a sample of the others. Calls come from the whole dose curve; as a rule, active = well fitted inhibition curve with a large enough effect; inconclusive = small, poorly fitted or top-dose-only effect; inactive = no such curve, though single readings can be large or run the other way. Where the call is inconclusive, the potency comes from a doubtful curve fit.
# Experiment: qHTS Primary assay for Inhibitors of Plasmodium falciparum Dd2 growth in vitro; note: nearly all actives have a fitted effect of over 65% in size;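 for activity, negative = inhibition: plate controls were DMSO vehicle for no effect and reference drug for full effect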
# Conditions: P. falciparum Dd2 growth, SYBR Green, 72 h; activity, negative = inhibition: at 28.9 µM (top of the series) unless noted; series mostly up to 28.9 µM
# Method in brief: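 Readout: SYBR Green fluorescence, 485 nm excitation, 535 nm emission, after ~16 h lysis at 37C. Before that, Dd2-infected red cells (2.5% hematocrit) grew 72 h with compound, 29 uM top final concentration.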
# Potency is the fitted concentration of half-maximal effect; tags give direction and shape of the fitted curve.
Compound,Potency,"activity, negative = inhibition",outcome
Cc1ccsc1CN1CCCN(S(=O)(=O)c2ccccc2)CCC(=O)NCC1,"inconclusive: 1.26 µM [inhibitor, full curve, poor fit]",–,–
Cc1nnc(N2CCC(C(=O)Nc3ccc(F)cc3)CC2)c2nn(-c3ccc(Cl)cc3)c(C)c12,"inconclusive: 11.2 µM [inhibitor, single point]",–,–
Cc1ccc(C2c3[nH]c4ccccc4c3CCN2C(=O)c2ccccc2Br)cc1 (stereo not drawn),"inconclusive: 11.2 µM [inhibitor, single point]",–,–
O=C(c1ccoc1)N1CCCC(CCc2ccc(F)c(F)c2)C1 (stereo not drawn),–,inactive: -13.1%,–
O=C(COc1ccccc1)N1CCC2(CC1)NC(=O)N(c1ccccc1Cl)N2,"inconclusive: 8.91 µM [inhibitor, single point]",–,–
COc1ccc(C(=O)N2CCn3c(nnc3-c3ccncc3)C2)cc1,–,inactive: -8.96%,–
O=C1NCc2ccccc2CC12CCCN(Cc1ccccc1F)C2 (stereo not drawn),"inconclusive: 7.08 µM [inhibitor, partial curve, poor fit]",–,–
CN1C(=O)C(CC(=O)NC2CCCC2)=C2CCCCC21 (stereo not drawn),–,inactive: -6.06%,–
CC(C)(O)C#Cc1ccc(-c2nccn2-c2cccc(-n3cncn3)c2)cc1,"inconclusive: 10 µM [inhibitor, single point]",–,–
COc1cccc(N2C(=O)NC(=NC3CCCCC3)C23CCCN([S+](=O)([O-])c2cccc(OC)c2)C3)c1 (stereo not drawn),"inconclusive: 11.2 µM [inhibitor, single point]",–,–
Cc1ccc(NC(=O)N(Cc2ccc3c(c2)OCO3)C2CCN(Cc3ccccc3)CC2)cc1F,"inconclusive: 10 µM [inhibitor, single point]",–,–
Cc1cccc([S+](=O)([O-])N2CCC3(CC2)OCCN(c2cccnc2)C3=O)c1,–,–,inactive [at 44.1 µM]
Cc1cc(Br)ccc1NC(=O)Cn1cnc2sc(C)c(S(=O)(=O)N3CCN(C)CC3)c2c1=O,"inconclusive: 7.94 µM [inhibitor, partial curve]",–,–
O=C(NC[C@H]1O[C@@H](CC(=O)N2CCc3ccccc32)[C@H](O)[C@@H]1O)c1ccco1,"inconclusive: 31.6 µM [inhibitor, single point]",–,–
Cc1cnc(CCNC(=O)C2CCCC2)n1Cc1ccc(F)cc1,–,inactive: -7.56%,–
CC(C)(C)OC(=O)N1CCC(c2c(C(=O)N3CCN(c4ccccc4)CC3)cnn2-c2ccccc2)CC1,"inconclusive: 12.6 µM [inhibitor, single point]",–,–
CCn1cc(CN2CCN(S(C)(=O)=O)CC2)ccc1=O,–,inactive: 0.557%,–
Cc1ccc(NC(=O)N2CCc3c(C(=O)NCc4ccco4)cccc32)cc1,"inconclusive: 5.01 µM [inhibitor, partial curve]",–,–
